167 variants from the RNAGym collection of RNA variant scans (doi:10.1093/nar/gkz1192) can be followed below.

Read counts are not given, so values of variants with three or more changes are uncertain.

Sequences and labels used below:
B1: CPEB3 Ribozyme (parent)
chain: UAACAGGGGGCCACAGCAGAAGCGUUCACGUCGCAGCCCCUGUCAGAUUCUGGUGAAUCUGCGAAUUCUGCUGUAUAUCUC

In this series the parent is B1. Kind of series: self-cleavage, relative activity (ratio to wild type); higher = more cleavage; in vitro, sequencing. Summed up:
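Relative activity compares each variant's cleaved/total read fraction with that of the unmutated ribozyme. To get these fractions, barcoded CPEB3 ribozyme libraries from rounds of error-prone PCR were transcribed with T7 RNA polymerase for 5 hours at 37°C and then given 15 min of DNase I treatment before EDTA was added. The RNAs were reverse transcribed with template switching and sequenced on Illumina, and DNA sequencing linked barcodes to variants. A minimum of 5 reads applied, and three batches were averaged.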
C4U G46U U48C A57G U72A G73A: the self-cleavage was 1.16. For A3U G10A A56U U67C C79G U80C, the self-cleavage came out at 0.1.

For the variant A5G A15G A35U, the self-cleavage amounted to 0.45.

Take A3U U25C U43G U78C: the self-cleavage was found to be 0.27. With C4U A35G A45U the figure was 1.19; with A5G A18G C40U U49C A56G C71A, 0; with C4G A15G U49C U69C, 0.16.

Consider A3U G16A U31A C50U U60G U67C U78C, for which the self-cleavage was 0.07. In the case of C4U C39A A57C, the self-cleavage came to 0.15. As for A5G A15G U26C A45G A56U, the self-cleavage was found to be 0.06. For the variant A5C A13G C79U, the self-cleavage stood at 1.12. The same measure for A5G A15G U25A U41A U76A: 0.47; for C4U A57G U60A U80A: 0.84; for A5C G33U G55C A65U U72A: 0.07. With A5C U26C U31C the figure was 0.87. With C4U A21G U49G U54C A57G U72C A77U the figure was 0.25; with A3U G8A A35U U67A, 0.09. Consider A3U C40A U54A U69C, for which the self-cleavage was 0.19. In the case of C4G A21G A57G, the self-cleavage came to 0.81. With A5G A13U A15U C50A, the self-cleavage was found to be 0.5. With A3U G10A U60A U67A A77G U80C the figure was 0.1; with A5G A20G U26A U60G C62G C71U U74C, 0.02. Regarding C4U A20G A35G A45G, the self-cleavage worked out at 1.07. A5C G6A A13U C29U U43C U54A A57G: the self-cleavage is 0.1.

With A5C A15U A45G A56U, the self-cleavage stood at 0.19. The same measure for C4U A20G U66C A75G: 0.24; for C4U U31C C44U U58C U60A: 0.21. On to A5C A15G A20G U25A U54C A56U U74C, for which the self-cleavage was 0.36. The same measure for A5C C29U U41C U60C A64G: 0.11. Turning to A5G A21G A28G G52A U54C U69A U72G, the self-cleavage is 0.06. The same measure for A5G A15U U48C U80A: 0.37. With A5G A15U A20G C62U the figure was 0.26; with A5C A15U A20G A21G U48C A56U, 0.09; with A5G A15G A35U U60C, 0.07. As for A5G A13G U25C U48C, the self-cleavage is 0.08. Take C4U G8A A21G C34U: the self-cleavage is 0.08. Turning to A5G A18G U31C G33A C38U C62G U72A, the self-cleavage was 0.1. A5C A20G U41A U76C: the self-cleavage turned out to be 0.58. For A3U U66A U72C, the self-cleavage amounted to 0.42. Take C4A A13G A15G A28G C81U: the self-cleavage is 0.65. With A3U C37G G42C A64G the figure was 0.16; with A5G A15G C40U U78C, 0.15. With C4G C12A G16A, the self-cleavage worked out at 0.99. The same measure for A5G A18G U26C A28U A57G: 0.3. With A5G A20U A57G U74A the figure was 0.46; with A5C A13G G30A U51C C81G, 0.13. The same measure for A5G A13U U26A U78C U80C: 0.38. With A5C C27A A28G G73A U78C, the self-cleavage was 0.43.

With A5G A13U G52C U60C U67A U80C, the self-cleavage turned out to be 0.44. The same measure for A5G A15U U60C: 0.3. The same measure for A3U G24A U25C G30C U41C U60C U74G: 0.05; for A5G A15U U41A U43C A47G A56U U67G: 0.07. On to A5G A13G A20G U58C A77U, for which the self-cleavage was determined as 0.08.

A5G A15G U25C G33A: the self-cleavage amounted to 0.06. The same measure for C4U U25C G36C U54A G63C U78C: 0.1. With C4G G10U A18G U54A A65C, the self-cleavage came out at 0.08. The same measure for A5G A20U A28G U43C U67C U80A: 0.17.

As to A5C A15U U43A U54C, the self-cleavage turned out to be 0.94.

In the case of A5C U26C U51C, the self-cleavage amounted to 0.54. The same measure for A5G A18U G22U: 0.7; for C4U A20U A56U U69C: 0.14; for A5G A13U A18U G46C: 0.28. The same measure for A5G A13G A18U U49A: 0.44; for A3U C40U U66C: 0.29.

As to A3U U69C A75G, the self-cleavage was 0.49.

A5G A13G U51C U54C: the self-cleavage was 0.54. A5G A20G U60C: the self-cleavage is 0.32. With A5G A15U A45U U80A the figure was 0.76.

Regarding C4U U51A G55U U80A, the self-cleavage was determined as 0.96. The same measure for A5G A13G C38G A64G A65G U69C: 0.3; for A5G A20G A47G U66C U69C: 0.32.

For C4U U41G U72C, the self-cleavage was determined as 0.17. As for A5G A20G U60A U69A, the self-cleavage came to 0.31. With C4U U54C A57G U60C the figure was 0.25; with C4U U25C U51G U69A U72C, 0.05; with A5G A20C A28G U74A, 0.57. Turning to A5G A15G G73A, the self-cleavage was 0.87. For C4A G8A C14A A21G U72C A75U, the self-cleavage is 0.05.

For the variant C4G C12U U25C A45U A47G A64G U80C, the self-cleavage was determined as 0.12. The same measure for C4U U26C U41A U49C A64G: 0.3. For A5G A18G A20U, the self-cleavage is 0.4. With A5G A20G A57G the figure was 0.5. With C4U A13U A35G the figure was 1.37; with C4A U26C A28U U74C, 0.61; with A5G A20G G36C, 0.73. Turning to A3U G8A A28C, the self-cleavage was determined as 0.1. For the variant A5G A20U U25C U49C A56G A57G A65G, the self-cleavage amounted to 0.

Consider A5G A13U G52A, for which the self-cleavage came to 0.9. With A5G A13U U51A U72C the figure was 0.82; with A5G A20G A35U U43C A65U, 0.09. On to C4U A18C A28U, for which the self-cleavage was found to be 0.48.

Consider A5C A20G G24C A56G G63C A64G, for which the self-cleavage was determined as 0.1. With A5C A18U U67C the figure was 0.14; with A5G A15C U43A, 0.73. For the variant A5G A13U U72A, the self-cleavage came out at 0.45. As to A5G A13G C29U U54C A64U C79G U80C, the self-cleavage stood at 0.06. For the variant C4U G8A A18G A20G C27U C71U, the self-cleavage was 0.05. With A5G A20G G42A the figure was 0.37; with A5G A20U A21G A45G U51G U54C, 0.08; with C4U U26A U49A, 0.65. Turning to A5G A20U A64U A77G, the self-cleavage is 0.14. With A5C G61A U78C, the self-cleavage was found to be 0.5. Regarding A5C A13C G53A U60C A65U U80C, the self-cleavage was 0.17. For the variant A3U U26C U31A, the self-cleavage was 0.12.

Regarding A3U C32U A57U U60A, the self-cleavage came out at 0.32. With A3U G8U U54A U78C the figure was 0.3; with A5G A13C A45G, 0.71. For A3U C34A U48C A56G C62U U80C, the self-cleavage turned out to be 0.11. With A5C A15G A21G U51C A57G A75G the figure was 0.5; with C4G G8A A13U G33A U54C U60C U78C, 0.05; with A5G A15U A28G U80C, 0.11. As to A5G A18U U26A U41A, the self-cleavage stood at 0.27. With A5C G24A C39A A57G the figure was 0.38. The same measure for A5C A35G U48C A57G G63A U66C U67C: 0.19; for C4A U72A U80A: 1.25; for A5G A15C U48C A57G: 0.7. The same measure for A5G A15G U25C A56U G61U U72A: 0.16. A3U G33A U41C A45G G46A: the self-cleavage was determined as 0.08.

For A3U G22C U41C G55U U69C, the self-cleavage was found to be 0.18.

In the case of A3U C40A U76C, the self-cleavage came out at 0.42. Consider A5G A18G G19A U41A U69A, for which the self-cleavage is 0.07. C4U A20G A28C G30C C38A U43C: the self-cleavage amounted to 0.13. Take A5G A18G A45G A64U U72C: the self-cleavage came to 0.73. With A5C A13G U31C, the self-cleavage was determined as 0.46.

With A5G A13G A28U U49C U58C, the self-cleavage turned out to be 0.05. With C4U A35U U43C U49A A64G U78C the figure was 0.08; with C4U U26C A56G A77U, 0.5; with A3U U60C A75G, 0.61. Regarding A5G A15G U78A, the self-cleavage was determined as 0.74. With A5G A18U U51A the figure was 0.28; with C4U A21G U41A U54A U80C, 0.53. For C4U U51A A57G, the self-cleavage was 0.56. The same measure for A3U G16U A18G G46C U60C: 0; for A5G A15G C37U U41G U49C U67A: 0.15.

As for A5G A13G A56U A64U, the self-cleavage was found to be 0.1. For the variant A5C U26C C29G A45G U49C U72C U80C, the self-cleavage amounted to 0.09. In the case of A5G A21G A28U G30U U41C U60C A65G, the self-cleavage came to 0.07. Regarding A5G A18U U25C U41C U49G U54G, the self-cleavage turned out to be 0.25. Regarding C4A U26C C37A U48C, the self-cleavage amounted to 0.18. For C4U U49A U51C U67A, the self-cleavage is 0.66. The same measure for C4U A20G G30U U49A A56U U80C: 0.17; for A5C A15G U72C: 1.04. Regarding A5G A21G U49C U54G U80A, the self-cleavage was found to be 0.09.

On to C4G A20G U69A, for which the self-cleavage turned out to be 0.55. C4U A15G U26C A35U U49A: the self-cleavage was 0.17. With A3U U41C U43C U60C, the self-cleavage came to 0.09. The same measure for C4U U41C U43C U60G A64U: 0.23. With C4U U31C C34U U78C the figure was 0.2; with A3U G22C U31C, 0.41; with A3U U54A G63A U78C, 0.91.

Regarding C4G A13U U31C U67C, the self-cleavage was found to be 0.19. With A5G A13G U26C A35C the figure was 0.47. Turning to A5G A21G U26C A47U A64U, the self-cleavage turned out to be 0.06. With A5G A13G A20U U26C U41C U66C the figure was 0.05; with A5C A21G U51C, 0.48. As to A5G A13G U26C U41A A56U U69A U74C, the self-cleavage was found to be 0.08. With A5G A13G U78C the figure was 0.58; with A5G A20G U48C A65G, 0.56. The same measure for A5G A21G U31C G36A U51C U78A U80A: 0.06; for A5G A20G A45G G46A U48C A77G: 0.8. The same measure for C4U U41C A45G U51C A57C U72A A75G: 0.15; for C4U G6A A35C: 0.2.

Regarding A5G A20G C34G U41A U54A A57G, the self-cleavage was determined as 0.1. With A5G A18G U41A A56G the figure was 0.12; with A5G A15G U51A, 0.45; with C4U U26A U60C U78C, 0.77. The same measure for C4A C17G U60A: 0.28.
